The RNAGym collection of RNA variant scans (doi:10.1093/nar/gkz1192)
The source gives no read counts; variants with many changes may rest on few reads.

B1: CPEB3 Ribozyme (parent)
chain: UAACAGGGGGCCACAGCAGAAGCGUUCACGUCGCAGCCCCUGUCAGAUUCUGGUGAAUCUGCGAAUUCUGCUGUAUAUCUC

Variants of: B1
Assay: self-cleavage, relative activity (ratio to wild type); higher = more cleavage; in vitro, sequencing
Outline: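 Barcoded CPEB3 ribozyme mutants, produced by rounds of error-prone PCR, self-cleaved while being transcribed with T7 RNA polymerase for 5 hours at 37°C and during a subsequent 15 min DNase I step before EDTA was added. Sequencing of template-switched cDNA on Illumina gave cleaved and total reads, and DNA sequencing assigned barcodes to variants. Each variant's relative activity is its cleaved/total read fraction divided by the unmutated ribozyme's fraction, averaged across three batches. A variant needed a minimum of 5 reads.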

| Variant | self-cleavage |
| --- | --- |
| UAACAGAGGGCCACAGCGGAAGCGUUCACGUCGCUGCCCCUGUCAGAUUCUGGUGAAUCUGCGAGUUCUGCUGUAUAUCUC [G7A A18G A35U A65G] | 0.05 |
| UAACAUGGGGCCACAGCUGAAGCGUUCACGUCGUAGCCCCUGUCAGAUUCUGGUGAAUCUGCGAAUUCUGCUGUAUAUCUC [G6U A18U C34U] | 0.18 |
| UAACAGAGGGCCACAGCAGGAGCGUUCACGUCGCAGCCCCUGUCAGAUUCUGGUGAAUCUGCGAAUUCUGCUGUACAUAUC [G7A A20G U76C C79A] | 0.28 |
| UAACAUGGGGCCACAGCGGAAGCGUUCACGUCGCAGCCCCUGUCAGAUUCGGGUGAAUCUGCGAGUUCUGCUGUAAAUCUC [G6U A18G U51G A65G U76A] | 0.16 |
| UAACAGAGGGCCACAGCAGAGGCGUUCACGUCGCAGCCCCCGUCAGAUUCUGGUGAAUCUGCUCAUUCUGCUGUAUAUCUC [G7A A21G U41C G63U A64C] | 0.19 |
| UAACAUGGGGCCACAGCAGUAGCGUUCACGUCGCUGCCCCCGUCAGAUUCUGGAGAACCUGCGAAUUCUGCUGUAUAUCUC [G6U A20U A35U U41C U54A U58C] | 0.07 |
| UAACAUGGGGCCACAGCAGGAGCGUUCACGUCGCAACCCCCGUCUGAUUCUGGUGAAUCUGCGAAUUCUGCUGUAUAACUC [G6U A20G G36A U41C A45U U78A] | 0.05 |
| UAACAUGGGGCCACAGCAGAAGCGUUCACGUCGCAGCCCCUGUCAGAUUCUGGUGAAUCUGCGAAUUCAGCCGUGUAUCUC [G6U U69A U72C A75G] | 0.15 |
| UAACAGAGGGCCACUGCAGAAGCGUUCACGUCGCAGCCCCUGUCAGAUUCUGGUGAAUCUGCGGAUUCUGCUGUACAUCUC [G7A A15U A64G U76C] | 0.2 |
| UAACAUGGGGCCACAGCAGAAGCGUUCACGUCGCAGCCCCUGACAGAUUCUGGUGAAUCUGCGAAUCCCGCUGUAUAUCUC [G6U U43A U67C U69C] | 0.27 |
| UAACAUGGGGCCACAGCAGAAGCGUUCACGUCGCAGCCCCUGUCAGAUUCCGGUGAAUCUGCGAAUUCUCCUGUAUAUCUC [G6U U51C G70C] | 0.08 |
| UAACAGAGGGCCACAGCAGGAGCGUACACGUCGCAGCCCCUGUCAGAUUCUGGAGAAUCUGCGAAUUCUGCUGUAUGUCUC [G7A A20G U26A U54A A77G] | 0.06 |
| UAACAGAGGGCCACAGCAGAGGCGUUCACGUCGCAGCCCCUGUCAGAUUCUGGUGAAUCCGCGGAUCAUGCUGUAUAUCUC [G7A A21G U60C A64G U67C C68A] | 0.07 |
| UAACAUGGGGCCACAGCAGAAGCGUUCACGUCGCAGCCCCUGUCAGAUUCCGGUGAAUCUGCGAGUUCUGCUGUAUAUCUC [G6U U51C A65G] | 0.1 |
| UAACAGAGGGCCACAGCGGAAGCGUACACGCCGCAGCCCAUGUCAGAUUCUGGUGAGUCUACGAAUUCUGCUGUAUAUCUC [G7A A18G U26A U31C C40A A57G G61A] | 0.04 |
| UAACAUGGGGCCACAGCAGAAGCGUCCCCGUCGCAGCCCCUGUCAGACUCUGGUGAAUCUGCGAAUCCAGCUGUAUAUCUC [G6U U26C A28C U48C U67C U69A] | 0.22 |
| UAACAGAGGGCCACAGCAGUAGCGUUCACGUCGCUGCCCCUGUCAGAUUCUGGUGUAUCUGCGAAUCCUGCCGUAUAUCUC [G7A A20U A35U A56U U67C U72C] | 0.04 |

| Variant | self-cleavage |
| --- | --- |
| UAACAUGGGGCCACAGCAGAAGCGUUCACGUCGCUGCCCCUGUCAGAUUCUGGUGAAUCUGCGAAUUCUGCUGUAUGUCUC [G6U A35U A77G] | 0.02 |
| UAACAUGGGGCCACAGCAGUAGCGUUCACGUCGCAGCCCCAGUCAGAUUCUGGUGGAUCUGCGAAUUCUGCUGUAUAUCCC [G6U A20U U41A A56G U80C] | 0.07 |
| UAACAUGGGGCCACAGCAGAUGCGUUCACGUCUCAGCCCCUGUCAGAUUCUGGUGAAUCCGCGAAUUCUGCUGUAUAUCUC [G6U A21U G33U U60C] | 0.1 |
| UAACAUGGGGCCACAGCAGAAGCGUUCACGUCGCAGCCCCUGUCAGAUUCAGGUGAAUCUGCGGAUGCUGCUGUAUAUCUC [G6U U51A A64G U67G] | 0.05 |
| UAACAUGGGGCCACAGCAGAAGCGUUCACGUCGCAGCCCCAGUCAGGUUCUGGUGAAUCUGCGAAUUCUGCUGGAUAUCUC [G6U U41A A47G U74G] | 0.1 |
| UAACAUGGGGCCACAGCAGAAGCGUUCACGUCGCAGCCCCUGUCAGACUCUGGUGUAUCUGCGAAUUCUGCUGUAUAUCUC [G6U U48C A56U] | 0.13 |
| UAACAGAGGGCCACAGCGGAAGCGUUCACGUCGCAGCCCCUGUCAGAUUCUGGUGGAUCUGCGAAUUCUGCUGUAUAUCUC [G7A A18G A56G] | 0.34 |
| UAACAUGGGGCCACAGCAGAAGCGUCCACGACGCAGCCCCUGACAGAUUCUGGUGAAUCUGCGGAUUCUGCUGUAUAUCUC [G6U U26C U31A U43A A64G] | 0.07 |
| UAACAUGGGGCCACAGCAUAAGCGUUCACGUCCCAGCCCAUGUCAGAUUCUGGUGAAUCCGCGAGUUCUGCUGUAUAUCUC [G6U G19U G33C C40A U60C A65G] | 0.06 |
| UAACAGAGGGCCACAGCAGGAGCGUUCACGUCGCAGCCCCUGUCAGAUUCUGGCGAAUCUGCGAAUUCUGCUGUAUAUCUC [G7A A20G U54C] | 0.38 |
| UAACAGAGGGCCACAGCAGAGGCGUUCACGUCGCGGCCCCUGUCAGGUUCUGGUGAAUCUGCUAAUUCCGCUGUAUAUCUC [G7A A21G A35G A47G G63U U69C] | 0.13 |
| UAACAUGGGGCCACAGCAGAAGCGUUCACGUCGCAGCCCCUGCCAGAUUCCGGUGAAUCCGCGAAUUCUGCCGUACAUCCC [G6U U43C U51C U60C U72C U76C U80C] | 0.08 |
| UAACAGAGGGCCACAGCAGAAGCGUUCUCGUCGCAGCCCCUGUCAGAUUCUGGUGAGUCUGCGAAUUCUGCUGUAUAUCUC [G7A A28U A57G] | 0.15 |
| UAACAUGGGGCCACAGCAGCAGCGUUCACGUCGCAGCCCCUGACAGAUUCUGGCGAAUCUGCGAAUUCUGCUGCAUAUCUC [G6U A20C U43A U54C U74C] | 0.1 |
| UAACAGAGGGCCACAGCAGAAGCGUUCGCGGCGCAGCCCCUGUCAGAUCCUGGUGAAUCUGCGAAUUCUGCUGUAUAUCUC [G7A A28G U31G U49C] | 0.05 |
| UAACAGAGGGCCACAGCAGAGGCGUUCACGUCGCAGCCCCUGUCAGAUUCUGGUGAAUCUGCGGACUCUGCUGUAUAUCUC [G7A A21G A64G U66C] | 0.18 |
| UAACAUGGGGCCACAGCAGAAGCGUUCACGUCGCAGCCCCUGCCAGAUUCUGGCGAAUCUGCGAAUUCUGCUGUAUAUCUC [G6U U43C U54C] | 0.11 |
